# According to the supplement of paper PMC8728848:
# Some of the results follow.
# B1: rCnSL-proB (Clitocybe nebularis) (protein)
# chain: PTFSPIFALLAFLPFGTLASLLPQTQLVFRINPNLPGPNDVFVGYRGTNNVVGAIYERDGIKDTPMNNGADAELGPGSYITDDLFTAQIFASGSAGNNPGTTATVCKIYADGVQWRGAPKGYLPVLYFGNGQAAEQTRQTYLQGLDIPGTAIRFANLAKTPNQGPTAPRQMVVPSGGLQTLLKASCFPANHAALPQVLSYFNVRAALPPGWNIRTGPEFPNWTN
# Columns and labels:
# Test in all cases: glycan array binding signal (z-score within array); higher = stronger binding
# Settings in all cases: glycan notation: IUPAC condensed, linker removed
# Fuc(a1-2)Gal = molecular target: Fuc(a1-2)Gal
# Method in brief: (§1)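 Arrays were curated from the Consortium for Functional Glycomics database, 3228 in total, and kept only where the protein sequence was available. Binding is expressed as a within-array Z-score. This score was averaged across arrays of the same protein sequence at different concentrations or buffers and across linkers, and negative values can be read as non-binding.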
# Fuc(a1-2)Gal(b1-3)GalNAc = molecular target: Fuc(a1-2)Gal(b1-3)GalNAc
# Method in brief: as §1
# [1] = molecular target: Fuc(a1-2)Gal(b1-3)GalNAc(a1-3)[Fuc(a1-2)]Gal(b1-4)Glc
# Method in brief: as §1
# [2] = molecular target: Fuc(a1-2)Gal(b1-3)GalNAc(a1-3)[Fuc(a1-2)]Gal(b1-4)GlcNAc
# Method in brief: as §1
# [3] = molecular target: Fuc(a1-2)Gal(b1-3)GalNAc(b1-3)Gal
# Method in brief: as §1
# [4] = molecular target: Fuc(a1-2)Gal(b1-3)GalNAc(b1-3)Gal(a1-4)Gal(b1-4)Glc
# Method in brief: as §1
# [5] = molecular target: Fuc(a1-2)Gal(b1-3)GalNAc(b1-4)[Neu5Ac(a2-3)]Gal(b1-4)Glc
# Method in brief: as §1
# Fuc(a1-2)Gal(b1-3)GlcNAc = molecular target: Fuc(a1-2)Gal(b1-3)GlcNAc
# Method in brief: as §1
# [6] = molecular target: Fuc(a1-2)Gal(b1-3)GlcNAc(b1-2)Man(a1-3)[Fuc(a1-2)Gal(b1-3)GlcNAc(b1-2)Man(a1-6)]Man(b1-4)GlcNAc(b1-4)GlcNAc
# Method in brief: as §1
# [7] = molecular target: Fuc(a1-2)Gal(b1-3)GlcNAc(b1-2)Man(a1-3)[Fuc(a1-2)Gal(b1-3)GlcNAc(b1-2)Man(a1-6)]Man(b1-4)GlcNAc(b1-4)[Fuc(a1-6)]GlcNAc
# Method in brief: as §1
# [8] = molecular target: Fuc(a1-2)Gal(b1-3)GlcNAc(b1-3)Gal(b1-4)Glc
# Method in brief: as §1
# [9] = molecular target: Fuc(a1-2)Gal(b1-3)GlcNAc(b1-3)GalNAc
# Method in brief: as §1
# [10] = molecular target: Fuc(a1-2)Gal(b1-3)GlcNAc(b1-3)[Fuc(a1-2)Gal(b1-3)GlcNAc(b1-6)]GalNAc
# Method in brief: as §1
# [11] = molecular target: Fuc(a1-2)Gal(b1-3)GlcNAc(b1-3)[Gal(b1-4)GlcNAc(b1-6)]Gal(b1-4)Glc
# Method in brief: as §1
# [12] = molecular target: Fuc(a1-2)Gal(b1-3)GlcNAc(b1-3)[Neu5Ac(a2-6)Gal(b1-4)GlcNAc(b1-6)]Gal(b1-4)Glc
# Method in brief: as §1
# [13] = molecular target: Fuc(a1-2)Gal(b1-3)GlcNAc6S
# Method in brief: as §1
# [14] = molecular target: Fuc(a1-2)Gal(b1-3)[Fuc(a1-4)]GlcNAc
# Method in brief: as §1
# [15] = molecular target: Fuc(a1-2)Gal(b1-3)[Fuc(a1-4)]GlcNAc(b1-2)Man(a1-3)[Fuc(a1-2)Gal(b1-3)[Fuc(a1-4)]GlcNAc(b1-2)Man(a1-3)]Man(b1-4)GlcNAc(b1-4)GlcNAc
# Method in brief: as §1
# [16] = molecular target: Fuc(a1-2)Gal(b1-3)[Fuc(a1-4)]GlcNAc(b1-2)Man(a1-3)[Fuc(a1-2)Gal(b1-3)[Fuc(a1-4)]GlcNAc(b1-2)Man(a1-6)]Man(b1-4)GlcNAc(b1-4)[Fuc(a1-6)]GlcNAc(b1-4)[Fuc(a1-6)]GlcNAc
# Method in brief: as §1
# [17] = molecular target: Fuc(a1-2)Gal(b1-3)[Fuc(a1-4)]GlcNAc(b1-3)[Fuc(a1-3)[Gal(b1-4)]GlcNAc(b1-6)]Gal(b1-4)Glc
# Method in brief: as §1
# [18] = molecular target: Fuc(a1-2)Gal(b1-3)[Fuc(a1-4)]GlcNAc(b1-3)[Gal(b1-4)GlcNAc(b1-6)]Gal(b1-4)Glc
# Method in brief: as §1
# Fuc(a1-2)Gal(b1-4)Glc = molecular target: Fuc(a1-2)Gal(b1-4)Glc
# Method in brief: as §1
# Fuc(a1-2)Gal(b1-4)Glc6S = molecular target: Fuc(a1-2)Gal(b1-4)Glc6S
# Method in brief: as §1
# Fuc(a1-2)Gal(b1-4)GlcNAc = molecular target: Fuc(a1-2)Gal(b1-4)GlcNAc
# Method in brief: as §1
# [19] = molecular target: Fuc(a1-2)Gal(b1-4)GlcNAc(b1-2)Man
# Method in brief: as §1
# [20] = molecular target: Fuc(a1-2)Gal(b1-4)GlcNAc(b1-2)Man(a1-3)[Fuc(a1-2)Gal(b1-4)GlcNAc(b1-2)Man(a1-6)]Man(b1-4)GlcNAc(b1-4)GlcNAc
# Method in brief: as §1
# [21] = molecular target: Fuc(a1-2)Gal(b1-4)GlcNAc(b1-2)Man(a1-3)[Fuc(a1-2)Gal(b1-4)GlcNAc(b1-2)Man(a1-6)]Man(b1-4)GlcNAc(b1-4)[Fuc(a1-6)]GlcNAc
# Method in brief: as §1
# [22] = molecular target: Fuc(a1-2)Gal(b1-4)GlcNAc(b1-2)[Fuc(a1-2)Gal(b1-4)GlcNAc(b1-4)]Man(a1-3)[Fuc(a1-2)Gal(b1-4)GlcNAc(b1-2)Man(a1-6)]Man(b1-4)GlcNAc(b1-4)GlcNAc
# Method in brief: as §1
# [23] = molecular target: Fuc(a1-2)Gal(b1-4)GlcNAc(b1-3)Gal(b1-4)GlcNAc
# Method in brief: as §1
# [24] = molecular target: Fuc(a1-2)Gal(b1-4)GlcNAc(b1-3)Gal(b1-4)GlcNAc(b1-2)Man(a1-3)[Fuc(a1-2)Gal(b1-4)GlcNAc(b1-3)Gal(b1-4)GlcNAc(b1-2)Man(a1-6)]Man(b1-4)GlcNAc(b1-4)GlcNAc
# Method in brief: as §1
binder,measurement,setting,value
B1,glycan array binding signal (z-score),Fuc(a1-2)Gal,-0.11
same,glycan array binding signal (z-score),Fuc(a1-2)Gal(b1-3)GalNAc,-0.292
same,glycan array binding signal (z-score),[1],-0.1
same,glycan array binding signal (z-score),[2],-0.402
same,glycan array binding signal (z-score),[3],-0.69
same,glycan array binding signal (z-score),[4],-0.192
same,glycan array binding signal (z-score),[5],0.074
same,glycan array binding signal (z-score),Fuc(a1-2)Gal(b1-3)GlcNAc,-0.603
same,glycan array binding signal (z-score),[6],0.589
same,glycan array binding signal (z-score),[7],1.83
same,glycan array binding signal (z-score),[8],-0.144
same,glycan array binding signal (z-score),[9],0.037
same,glycan array binding signal (z-score),[10],-0.645
same,glycan array binding signal (z-score),[11],-0.201
same,glycan array binding signal (z-score),[12],-0.541
same,glycan array binding signal (z-score),[13],-0.282
same,glycan array binding signal (z-score),[14],-0.508
same,glycan array binding signal (z-score),[15],3.69
same,glycan array binding signal (z-score),[16],0.19
same,glycan array binding signal (z-score),[17],-0.291
same,glycan array binding signal (z-score),[18],0.806
same,glycan array binding signal (z-score),Fuc(a1-2)Gal(b1-4)Glc,-0.444
same,glycan array binding signal (z-score),Fuc(a1-2)Gal(b1-4)Glc6S,-0.528
same,glycan array binding signal (z-score),Fuc(a1-2)Gal(b1-4)GlcNAc,-0.503
same,glycan array binding signal (z-score),[19],-0.05
same,glycan array binding signal (z-score),[20],-0.08
same,glycan array binding signal (z-score),[21],2.04
same,glycan array binding signal (z-score),[22],0.484
same,glycan array binding signal (z-score),[23],-0.806
same,glycan array binding signal (z-score),[24],0.475
